Like-named read-outs stand apart in the source and are kept apart here.
Legend:
[1] = test system: primary renal proximal tubule cells (RPTC); conditions: for Average uncoupled OCR ratio: 5 μM, LOPAC compounds; for Concentration of maximal effect on FCCP-OCR: 10-3000 nM; for Effect on FCCP-OCR in concentration response: 10-3000 nM (below 5 μM)
[2] = test system: primary renal proximal tubule cells (RPTC); conditions: cited from earlier work
[3] = test system: primary renal proximal tubule cells (RPTC); assay: cells; conditions: Oryctolagus cuniculus, 24 h, read-out: Average Drug FCCP OCR/Control FCCP OCR
[4] = RPTC, 10-3,000 nM, 24 h, MB = ratio to vehicle >1.15
[5] = RPTC, 24 hr, formoterol 30 nM, isoproterenol 10, 100, 1000 nM, BRL 37344 100, 300, 1000 nM, catecholamines 30 and 100 nM
[6] = RPTC, 24 hr, fold change in FCCP-OCR relative to DMSO controls

## Bromoacetyl alprenolol menthane
[1]; RPTC, 24 hr, […]
  Average uncoupled OCR ratio: 0.68 ± 0.2

## C[C@H](Cc1ccc(OCC(=O)O)cc1)NC[C@H](O)c1cccc(Cl)c1.O.[Na] (relative stereo) [BRL 37344, (±)-(R*,R*)-[4-[2-[[2-(3-Chlorophenyl)-2-hydroxyethyl]amino]propyl]phenoxy]acetic acid sodium hydrate]
[2]
  MB activity previously reported (Wills et al. 2012): inactive
[1]
  Change in FCCP-OCR relative to vehicle control: No significant changes

## CCCCCCCC/C=C\CCCCCCCC(=O)NCc1ccc(O)c(OC)c1 [Olvanil]
[1]; RPTC, 24 hr, […]
  Average uncoupled OCR ratio: 1.12 ± 0.08

## CC(C)NC[C@H](O)c1ccc(O)c(O)c1.Cl [isoproterenol, (R)-3,4-Dihydroxy-α-(isopropylaminomethyl)benzyl alcohol hydrochloride]
[1]; [4]
  MB concentration-response phenotype (FCCP-OCR): had no effect on MB
[1]; [5]
  Change in FCCP-OCR relative to vehicle control: No significant changes

## O=C(CCN1CCCCC1)Nc1cccc(Cl)c1 [compound 6434119]
[3]
  fold induction at 5 µM: 1.09 ± 0.03

## Ritodrine
[1]; [6]
  Average uncoupled OCR ratio: 1.02 ± 0.09
[1]; [4]
  MB concentration-response phenotype (FCCP-OCR): very potent at low concentrations but were not MB as concentrations increased

## Cn1ccnc1SCC(=O)c1ccccc1 [compound 6111462]
[3]
  fold induction at 5 µM: 0.89 ± 0.04

## (±)-Normetanephrine
[1]; RPTC, 24 hr, […]
  Average uncoupled OCR ratio: 1.06 ± 0.03

## Cc1cccc(C(=O)OC[C@@H]2CCCN3CCCC[C@H]23)c1 [compound 5402374]
[3]
  fold induction at 5 µM: 0.94 ± 0.04

## Cc1cc(C)c(OCC(O)CN2CCCCC2)c(C)c1 (stereo not drawn) [CB_2-5144525]
[1]; RPTC
  MB at 30 nM in concentration response curve: increased MB
[1]; RPTC, 24 h
  Concentration of maximal effect on FCCP-OCR: 30 nM
  Effect on FCCP-OCR in concentration response: significant and concentration-responsive increases
[3]
  fold induction at 5 µM: 1.22 ± 0.08

## CN(C)CC/C(=N\O)c1ccccc1 [compound 5533967]
[3]
  fold induction at 5 µM: 0.99 ± 0.07

## CCC(NC(C)C)C(O)c1ccc(O)c(O)c1 (stereo not drawn) [isoetharine]
[1]; [4]
  MB concentration-response phenotype (FCCP-OCR): had no effect on MB

## CC1=CS(=O)(=O)CC1Sc1nc(C)n[nH]1 (stereo not drawn) [compound 6384391]
[3]
  fold induction at 5 µM: 1.14 ± 0.08

## Carvedilol
[1]; [6]
  Average uncoupled OCR ratio: 1.09 ± 0.03

## O=C(OC[C@@H]1CCCN2CCCC[C@H]12)c1cccc(Br)c1 [compound 5402373]
[3]
  fold induction at 5 µM: 1.14 ± 0.05

## COC(=O)c1ccc(NC(=O)CCN2CCCCC2)cc1 [CB_3-6431725]
[1]; RPTC
  MB at 30 nM in concentration response curve: increased MB
[1]; [4]
  MB concentration-response phenotype (FCCP-OCR): promoted full MB
[1]; RPTC, 24 h
  Concentration of maximal effect on FCCP-OCR: 100 nM
  Effect on FCCP-OCR in concentration response: significant and concentration-responsive increases
[3]
  fold induction at 5 µM: 1.22 ± 0.04

## Cc1cc(C)c(OCC(O)CNC(C)(C)CC(C)(C)C)c(C)c1 (stereo not drawn) [compound 5144511]
[3]
  fold induction at 5 µM: 1.08 ± 0.06

## CCc1ccc(OCC(=O)c2ccc(O)c(CN(C)C)c2O)cc1 [compound 6632718]
[3]
  fold induction at 5 µM: 1 ± 0.05

## CCC(NC1CCCC1)C(O)c1ccc(O)c(O)c1 (stereo not drawn) [cyclopentylbutanepharine]
[1]; [4]
  MB concentration-response phenotype (FCCP-OCR): very potent at low concentrations but were not MB as concentrations increased

## Ranolazine
[1]; [6]
  Average uncoupled OCR ratio: 1.03 ± 0.03

## CN1CCCC(C(=O)c2ccccc2)C1 (stereo not drawn) [compound 5244600]
[3]
  fold induction at 5 µM: 0.92 ± 0.1

## O=C(O)CC1NCCc2ccccc21 (stereo not drawn) [compound 7562564]
[3]
  fold induction at 5 µM: 0.85 ± 0.04

## CCCCCCCC/C=C\CCCCCCCC(=O)NCCc1ccc(O)c(O)c1 [N-Oleoyldopamine]
[1]; [6]
  Average uncoupled OCR ratio: 0.9 ± 0.09

## COC(=O)[C@@H](N)Cc1ccc(O)c(O)c1 [L-3,4- Dihydroxyphenylalanine methyl ester]
[1]; [6]
  Average uncoupled OCR ratio: 0.95 ± 0.07

## NC[C@H](O)c1ccc(O)c(O)c1 [norepinephrine]
[2]
  MB activity previously reported (Wills et al. 2012): not stimulate MB
[1]; [5]
  Change in FCCP-OCR relative to vehicle control: No significant changes

## CC(C)(C)NCC(O)c1cc(O)cc(O)c1 (stereo not drawn) [terbutaline]
[1]; [4]
  MB concentration-response phenotype (FCCP-OCR): very potent at low concentrations but were not MB as concentrations increased

## O=C(CCN1CCCCC1)c1ccc(O)cc1 [compound 6433097]
[3]
  fold induction at 5 µM: 1.09 ± 0.06

## CC(C)(C)CC(C)(C)NCC(O)COCc1ccccc1 (stereo not drawn) [CB_1-5144510]
[3]
  fold induction at 5 µM: 1.19 ± 0.08

## Dobutamine
[1]; [6]
  Average uncoupled OCR ratio: 1.09 ± 0.14

## Labetalol
[1]; [6]
  Average uncoupled OCR ratio: 0.86 ± 0.11

## O=C(CCN1CCOCC1)Nc1ccc(Cl)cc1 [compound 6435349]
[3]
  fold induction at 5 µM: 1.01 ± 0.05

## SR 59230A
[1]; RPTC, 24 hr, […]
  Average uncoupled OCR ratio: 1.09 ± 0.07

## CC(C)(C)NCC(O)c1cc(Cl)c(N)c(Cl)c1 (stereo not drawn) [clenbuterol]
[1]
  MB concentration-response phenotype (FCCP-OCR): had no effect on MB

## CC(C)OC(=O)C(N)Cc1ccccc1 (stereo not drawn) [compound 5108436]
[3]
  fold induction at 5 µM: 1 ± 0.11

## OCc1cc(C(O)CNCCCCCCOCCCCc2ccccc2)ccc1O (stereo not drawn) [salmeterol]
[1]; [4]
  MB concentration-response phenotype (FCCP-OCR): inactive at stimulating MB

## CCC(NC(C)C)C(O)c1ccc(O)c2[nH]c(=O)ccc12 [procaterol, (±)-(1R,2S)-rel-8-Hydroxy-5-[1-hydroxy-2-(isopropylamino)butyl]-quinolin-2(1H)-one]
[1]; [4]
  MB concentration-response phenotype (FCCP-OCR): very potent, had Michaelis-Menten type concentration-response curves

## GR 55562
[1]; RPTC, 24 hr, […]
  Average uncoupled OCR ratio: 1.09 ± 0.09

## (±)-Atenolol
[1]; [6]
  Average uncoupled OCR ratio: 0.92 ± 0.15

## CC(C)NCC(O)c1cc(O)cc(O)c1 (stereo not drawn) [Metaproterenol]
[1]; [6]
  Average uncoupled OCR ratio: 1.02 ± 0.06
[1]; [4]
  MB concentration-response phenotype (FCCP-OCR): very potent at low concentrations but were not MB as concentrations increased

## CC(C)(C)NCC(O)c1ccc(O)c(CO)c1 (stereo not drawn) [Salbutamol]
[1]; [4]
  MB concentration-response phenotype (FCCP-OCR): inactive at stimulating MB

## CNCCc1ccc(O)c(O)c1 [N-Methyldopamine]
[1]; [6]
  Average uncoupled OCR ratio: 0.82 ± 0.13

## Mitoxantrone
[1]; [6]
  Average uncoupled OCR ratio: 1.1 ± 0.06
